Measured values as given in article PMC10986105.

B1: Flag-tagging AnxA6 (annexin A6 from plasmid pTango-4*Flag-AnxA6) [not stated] / EGFP-tagging RHOU (Ras homolog family member U from plasmid pEGFP-RHOU) [not stated] (parent)
chain 1: MAKPAQGAKYRGSIHDFPGFDPNQDAEALYTAMKGFGSDKEAILDIITSRSNRQRQEVCQSYKSLYGKDLIADLKYELTGKFERLIVGLMRPPAYCDAKEIKDAISGIGTDEKCLIEILASRTNEQMHQLVAAYKDAYERDLEADIIGDTSGHFQKMLVVLLQGTREEDDVVSEDLVQQDVQDLYEAGELKWGTDEAQFIYILGNRSKQHLRLVFDEYLKTTGKPIEASIRGELSGDFEKLMLAVVKCIRSTPEYFAERLFKAMKGLGTRDNTLIRIMVSRSELDMLDIREIFRTKYEKSLYSMIKNDTSGEYKKTLLKLSGGDDDAAGQFFPEAAQVAYQMWELSAVARVELKGTVRPANDFNPDADAKALRKAMKGLGTDEDTIIDIITHRSNVQRQQIRQTFKSHFGRDLMTDLKSEISGDLARLILGLMMPPAHYDAKQLKKAMEGAGTDEKALIEILATRTNAEIRAINEAYKEDYHKSLEDALSSDTSGHFRRILISLATGHREEGGENLDQAREDAQVAAEILEIADTPSGDKTSLETRFMTILCTRSYPHLRRVFQEFIKMTNYDVEHTIKKEMSGDVRDAFVAIVQSVKNKPLFFADKLYKSMKGAGTDEKTLTRIMVSRSEIDLLNIRREFIEKYDKSLHQAIEGDTSGDFLKALLALCGGED
chain 2: MPPQQGDPAFPDRCEAPPVPPRRERGGRGGRGPGEPGGRGRAGGAEGRGVKCVLVGDGAVGKTSLVVSYTTNGYPTEYIPTAFDNFSAVVSVDGRPVRLQLCDTAGQDEFDKLRPLCYTNTDIFLLCFSVVSPSSFQNVSEKWVPEIRCHCPKAPIILVGTQSDLREDVKVLIELDKCKEKPVPEEAAKLCAEEIKAASYIECSALTQKNLKEVFDAAIVAGIQYSDTQQQPKKSKSRTPDKMKNLSKSWWKKYCCFV

Variants of: B1
Assay: co-immunoprecipitation (IP of Flag-tagging AnxA6, immunoblot for GFP), band quantification
Conditions: with EGFP-tagging RHOU (Ras homolog family member U from plasmid pEGFP-RHOU); HepG2 cells co-transfected with pEGFP-RHOU, pHis-SUMO1 and pFlag-AnxA6 or pFlag-AnxA6K579R; parent: 1; read off a plot

Row | Variant | ratio to parent
1 | chain 1 K579R | 0.8
